In all, about 310,000 compounds went through this assay and about 2,200 (0.71%) showed an effect of 50% or more. The effect is printed as a negative number. Some of the results follow.
biological target: human ether-à-go-go-related gene (hERG) potassium channel (human, UniProt Q12809); experiment: primary screen, population patch clamp on CHO cells stably expressing hERG
Sequence (Q12809 whole entry, looked up): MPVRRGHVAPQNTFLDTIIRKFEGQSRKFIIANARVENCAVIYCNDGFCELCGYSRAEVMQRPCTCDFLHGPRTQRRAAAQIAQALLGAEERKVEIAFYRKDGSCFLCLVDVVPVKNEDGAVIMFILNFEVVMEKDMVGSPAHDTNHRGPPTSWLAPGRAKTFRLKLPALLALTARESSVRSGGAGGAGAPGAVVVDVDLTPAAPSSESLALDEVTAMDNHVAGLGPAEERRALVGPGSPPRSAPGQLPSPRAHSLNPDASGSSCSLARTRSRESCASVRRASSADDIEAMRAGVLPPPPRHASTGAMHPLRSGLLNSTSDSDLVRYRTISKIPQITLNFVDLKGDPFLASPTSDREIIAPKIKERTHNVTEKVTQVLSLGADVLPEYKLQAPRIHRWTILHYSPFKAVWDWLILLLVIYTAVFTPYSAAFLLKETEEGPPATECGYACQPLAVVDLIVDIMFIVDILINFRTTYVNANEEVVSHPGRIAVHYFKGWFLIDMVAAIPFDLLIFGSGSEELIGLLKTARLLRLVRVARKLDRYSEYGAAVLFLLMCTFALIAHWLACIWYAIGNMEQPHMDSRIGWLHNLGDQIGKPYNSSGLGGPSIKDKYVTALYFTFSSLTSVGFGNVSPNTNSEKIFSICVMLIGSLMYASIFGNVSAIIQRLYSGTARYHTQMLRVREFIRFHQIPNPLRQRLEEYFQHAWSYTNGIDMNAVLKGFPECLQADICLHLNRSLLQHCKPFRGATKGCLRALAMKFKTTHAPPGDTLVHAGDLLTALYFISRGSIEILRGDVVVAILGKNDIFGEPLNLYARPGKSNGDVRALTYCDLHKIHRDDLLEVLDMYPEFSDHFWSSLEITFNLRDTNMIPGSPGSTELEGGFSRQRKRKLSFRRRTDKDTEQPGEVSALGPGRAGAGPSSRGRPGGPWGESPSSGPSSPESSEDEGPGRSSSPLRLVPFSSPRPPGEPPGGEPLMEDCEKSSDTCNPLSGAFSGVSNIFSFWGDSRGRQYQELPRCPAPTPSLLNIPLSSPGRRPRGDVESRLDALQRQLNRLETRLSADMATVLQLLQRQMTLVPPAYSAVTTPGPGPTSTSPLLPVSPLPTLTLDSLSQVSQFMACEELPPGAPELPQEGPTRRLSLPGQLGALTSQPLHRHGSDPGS

| Structure (SMILES) | hERG current change (%, negative = inhibition) at 1uM [%] |
| --- | --- |
| NC(=O)c1ccc(SCC(=O)OCC(=O)NC2CCCCCCC2)c([N+](=O)[O-])c1 | 9.16 |
| FC(F)(F)c1cnc(NNC(=S)Nc2ccccc2Cl)c(Cl)c1 | 10.6 |
| Cc1c(Cl)cccc1NC(=O)CC1NCCNC1=O (stereo not drawn) | 8.91 |
| Cc1cccc(NC(=O)C2COc3ccccc3O2)c1 (stereo not drawn) | 12.4 |
| Cc1nc2ccccn2c1/C(O)=C1\C(=O)C(=O)N(CCN2CCOCC2)C1c1cccnc1 (stereo not drawn) | 19.9 |
| COc1ccc(C2=CC(=O)CC(C)(C)C2)cc1 | 9.03 |
| COc1ccccc1CNC(=O)C1CC(=O)N(C2CCCC2)C1 (stereo not drawn) | 6.53 |
| CN1CCN(C(=S)c2ccc(N(C)C)cc2)CC1 | 13.1 |
| O=C(N1CCN(c2ccccn2)CC1)C(Cl)(Cl)Cl | -1.54 |
| C=CCNC(=O)Cn1nnc(-c2ccc(-c3ccc(OC)cc3)cc2)n1 | 15 |
| O=C(COC(=O)c1ccccc1NC(=O)c1ccco1)NC1CCS(=O)(=O)C1 (stereo not drawn) | 6.5 |
| Cc1ccc(/C=N/NC(=O)CNC(=O)COc2ccc(Cl)cc2)o1 | 9.17 |
| O=C(NCCc1ccccc1)C1CCCN(C(=O)NC2CCCCC2)C1 (stereo not drawn) | 2.4 |
| Cc1nc(-c2ccccn2)nc(N2CCOCC2)c1Cl | 12.1 |
| CC1CC(C)CN(S(=O)(=O)c2ccc3c(c2)CC(C)N3C(=O)C2CCC2)C1 (stereo not drawn) | 8.32 |
| COc1ccc(-c2nn(-c3ccccc3)cc2C(=O)N(C)CC(=O)Nc2cccc(F)c2)cc1 | 8.34 |
| O=S(=O)(Nc1ccccc1N1CCOCC1)c1ccc(Cl)cc1 | 2.29 |
| COC(=O)c1cc(N2C(=O)C3C4C=CC(CC4)C3C2=O)ccc1Cl (stereo not drawn) | 11.6 |
| COCc1cc(C)n(CC(=O)Nc2cc(C)cc(C)c2)c(=O)c1C#N | 2.72 |

| Structure (SMILES) | hERG current change (%, negative = inhibition) at 1uM [%] |
| --- | --- |
| CCN(CC(=O)NC)S(=O)(=O)c1ccc(C)cc1 | 13.8 |
| C=CCn1c(Cc2cccs2)nnc1SCC(=O)Nc1cc(OC)cc(OC)c1 | 3.92 |
| Cc1ccccc1-n1nnnc1SCCCC(=O)c1ccc(F)cc1 | -0.258 |
| c1n[nH]c(SCCCCSc2ncn[nH]2)n1 | 10.9 |
| CCn1cc(/C=N/O)c(C)n1 | 14 |
| C=CCn1c(COc2ccc3c(c2)CCCC3)nnc1SCC(=O)Nc1cccc(SC)c1 | 11.6 |
| CC(C)Cc1ccc(C(C)C(=O)Nc2ccc(O)cc2)cc1 (stereo not drawn) | 8.53 |
| C=CCN1C(=O)CSc2ccc(C(=O)NCc3cccs3)cc21 | 5.21 |
| CCC(=NCCC(c1ccccc1)c1ccccc1)c1c(O)n(C)c(=O)n(C)c1=O | 2.97 |
| CCOC(=O)N1CCN(C(=O)c2ccc3c(=O)n(-c4ccc(OC)cc4)c(=S)[nH]c3c2)CC1 | 16.5 |
| O=C(c1cnn(-c2ccccc2)c1)c1cc(F)ccc1O | 14.5 |
| Cc1ccc(OCCCC(=O)ON=C(N)c2ccccc2C)cc1 | 8.65 |
| O=C(CCCn1c(=O)oc2ccccc21)N1CCN(c2ccc(F)cc2)CC1 | -35.4 |
| CC1CCCC(NC(=O)COC(=O)/C=C/c2ccco2)C1C (stereo not drawn) | 16.1 |
| CCOC(=O)N1CCC(NC(=O)c2cc(C(=O)Nc3cccc(C(F)(F)F)c3)ccc2CO)CC1 | 2.07 |
| O=C(COc1ccc(Cl)cc1)NCC(=O)N/N=C/c1cccs1 | 3.82 |
| COc1cccc(C(=O)O/N=C(\N)c2ccccn2)c1OC | 16.8 |
| COc1ccc(C(=O)Nc2cc(C(F)(F)F)ccc2-n2cncn2)cc1 | 10.2 |
| NC(=O)c1nnn(-c2ccc([N+](=O)[O-])cc2)c1-c1ccccc1 | -1.34 |

| Structure (SMILES) | hERG current change (%, negative = inhibition) at 1uM [%] |
| --- | --- |
| Cc1ccc(-n2c(C)cc3c2CCCC3=O)cc1 | 4.8 |
| Oc1ccccc1CNn1cnnc1 | 14.3 |
| Cc1cccc(-c2nc(NCCCN3CCOCC3)c3ccccc3n2)c1 | -6.19 |
| COCCCN1C(=O)C(=O)/C(=C(/O)c2ccc(S(=O)(=O)N3CCCCC3)cc2)C1c1ccc(OC)cc1 (stereo not drawn) | 13.8 |
| COc1cc(/C=N/NC(=O)c2ccc(Cl)cc2)ccc1OCC(=O)N1CC(C)OC(C)C1 (stereo not drawn) | 13.1 |
| CCC(=O)NC(Nc1nc2ccc(C)cc2s1)(C(=O)OC)C(F)(F)F (stereo not drawn) | 10.6 |
| CCCSc1ccccc1C(=O)N1CCN(C(=O)c2ccco2)CC1 | 17 |
| N#CCN1C(=O)C(=O)N(Cc2cccc(Cl)c2)C1=O | 14.6 |
| CN1/C(=C\C=C(/C#N)C(=O)Nc2ccccc2F)C(C)(C)c2ccccc21 | -6.25 |
| Cc1ccc(S(=O)(=O)CCSc2ccc(C(F)(F)F)cn2)cc1 | 5.41 |
| Cn1c(SCC(=O)N2CCOCC2)nnc1-c1ccc(Cl)cc1Cl | 12 |
| CN(C)S(=O)(=O)c1ccc(C(=O)Nc2ccc(OCC(=O)N3CCOCC3)cc2)cc1 | 3.57 |
| Cc1noc(C)c1S(=O)(=O)Nc1ccccc1N1CCOCC1 | 6.86 |
| O=C(NCCNC(=O)c1cc(Cl)ccc1Cl)c1ccccn1 | 14.9 |
| Cc1cc(C)n2nc(CC(=O)NCc3ccccc3Cl)nc2n1 | 9.04 |
| O=C(NCCCN1CCN(c2ccc(F)cc2)CC1)C1CCCN(c2ncnc3c2nc2n3CCCCC2)C1 (stereo not drawn) | -31 |
| CCOC(=O)[C@@H]1[C@H]2COc3cc(OC)ccc3[C@@H]2N2C(=O)N(c3cccc(Cl)c3)C(=O)[C@@]12C | 17.1 |
| NC(=O)c1ccc[n+](CC(=O)OCCC23CC4CC(CC(C4)C2)C3)c1.[Cl-] | 6.55 |
| Cn1c(=NCC(O)COc2ccccc2)sc2ccccc21 (stereo not drawn) | -4.86 |
